Binding signal data for 54 sequences are collected here from article PMC7819943, “Rice protein-binding microarrays: a tool to detect cis-acting elements near promoter regions in rice”.

Some of the results follow.

The target of the assay is T1, OsWOX13 (Oryza sativa, UniProt Q5QMM3 1-267).
T1 sequence: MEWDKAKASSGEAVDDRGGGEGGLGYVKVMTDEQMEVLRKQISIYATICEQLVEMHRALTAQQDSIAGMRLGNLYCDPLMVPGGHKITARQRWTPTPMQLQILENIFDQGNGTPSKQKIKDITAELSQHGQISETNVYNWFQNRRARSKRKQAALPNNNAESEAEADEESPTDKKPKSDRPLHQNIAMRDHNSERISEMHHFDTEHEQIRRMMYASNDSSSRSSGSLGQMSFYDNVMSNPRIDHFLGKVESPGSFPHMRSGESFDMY
The experiment in a line: protein-binding microarray (RPBM); PBS, 2% BSA, 51.3 ng/ul salmon testes DNA, 50 uM zinc acetate, 200 nM TF, 25 C, 1 h; high values mean tight binding. To be noted: protein: recombinant; tags: N-terminal polyhistidine and DsRed monomer fusion (pET32a); label: CyDye5-dUTP incorporated in the synthesized complementary strand; 3' TTTTT single-stranded linker to array surface; dsDNA, one strand shown. A digest of the protocol: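 An Axon 4000B scanner gave the binding signal as per-feature fluorescence intensity in arbitrary units. This followed washing of a custom Agilent array that had been incubated for 1 h at 25 °C with 200 nM protein in PBS, 2% BSA, salmon testes DNA and 50 µM zinc acetate. The proteins were transcription factors fused at the N-terminus to polyhistidine and DsRed, expressed in E. coli BL21-CodonPlus and purified on Ni–NTA.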
With “CATAATTTCCTTTCTCACCGGGCCACTCTCCACACCCGCTCGGAGTCACCTAGTGCAG”, the binding signal was 13500 fluorescence intensity (a.u.).

For “CTTAATTGTTGAACCGATCCGCAACGTACGTAACGCATTGCGGAGTCACCTAGTGCAG”, the binding signal was 19600 fluorescence intensity (a.u.).

In the case of “TATAAATTAATTTTAATTTTCTAATAAGCCAAATAAGCCACGGAGTCACCTAGTGCAG”, the binding signal is 42500 fluorescence intensity (a.u.).

In the case of “TATTACATCGATCATATTGATTGTCGATTAGTACACCTTACGGAGTCACCTAGTGCAG”, the binding signal is 5790 fluorescence intensity (a.u.).

On to “GGTTAATATGGATTAATTACTACAACTGTTTTACTGCTTTCGGAGTCACCTAGTGCAG”, for which the binding signal is 16300 fluorescence intensity (a.u.).

For “TGTCAATTTGTCAAAATAACGGTAGTGTTGAGAAATTTAACGGAGTCACCTAGTGCAG”, the binding signal is 3160 fluorescence intensity (a.u.).

Regarding “TCGACAACCAAATTTAATTTATAGTGTCATTGTCCAGGTTCGGAGTCACCTAGTGCAG”, the binding signal was 6140 fluorescence intensity (a.u.).

Regarding “GGCATTAACAGTTTTGCAATTTATCTCGACTAATCTTGCCCGGAGTCACCTAGTGCAG”, the binding signal is 7440 fluorescence intensity (a.u.).

With “TTCAATTGTAATCCAAGATAAATTGGGATCAAAGCCTTCACGGAGTCACCTAGTGCAG”, the binding signal was 3740 fluorescence intensity (a.u.).

With “TACTTATATTACTATGATGAGCAATTAACCATGCCCCGCCCGGAGTCACCTAGTGCAG”, the binding signal was 3220 fluorescence intensity (a.u.).

Take “TATATGGATTAACAGATAATTAGCAGCGGGGTTAGCAAAACGGAGTCACCTAGTGCAG”: the binding signal was 21000 fluorescence intensity (a.u.).

For “GCATTTAATTAAATCTAGAACTAATCCGGTTGATTTCGGCCGGAGTCACCTAGTGCAG”, the binding signal was 31600 fluorescence intensity (a.u.).

Consider “TGGTGATCGAGTTAACTAATTTCTTTGTCCTCCCTGAGACCGGAGTCACCTAGTGCAG”, for which the binding signal is 11700 fluorescence intensity (a.u.).

On to “GCATCCCTGATTTGAACCCGTGCGTGCACGGTCGGTCTCGCGGAGTCACCTAGTGCAG”, for which the binding signal was 4210 fluorescence intensity (a.u.).

Regarding “CGTCGGTGTGATTGATGGTGGTTTTGTTGTCTGATGATGACGGAGTCACCTAGTGCAG”, the binding signal was 30600 fluorescence intensity (a.u.).

With “ACTAACAGTTAGATTAAATTGATATCTCGTACCTCATATTCGGAGTCACCTAGTGCAG”, the binding signal was 27400 fluorescence intensity (a.u.).

Regarding “AGGTAATGTAAACTAAACTTAGGTTAATTTCATCCTCAACCGGAGTCACCTAGTGCAG”, the binding signal is 6850 fluorescence intensity (a.u.).

With “CATGCATGCACAGGTGATTAGTAGTATGTAATTATGCCAGCGGAGTCACCTAGTGCAG”, the binding signal was 6080 fluorescence intensity (a.u.).

With “CCTTATAATTGCTACCTACTGGCGATAAGCAGTGAACTATCGGAGTCACCTAGTGCAG”, the binding signal is 10700 fluorescence intensity (a.u.).

With “GAGATGAATCTTTTAAGCCTAATTATGTCATGATTTGGTACGGAGTCACCTAGTGCAG”, the binding signal is 6070 fluorescence intensity (a.u.).

For “TTTTCTAATCTAATCTAATCTAATCCAATCGGCCGATTAACGGAGTCACCTAGTGCAG”, the binding signal is 11100 fluorescence intensity (a.u.).

With “AGCAGTTAACAGCTAAACATAAGATGAGAGACGATGGGTTCGGAGTCACCTAGTGCAG”, the binding signal was 8130 fluorescence intensity (a.u.).

Consider “TATCAATGAATTACTGACAGATTGTGTCGTAGGGACCGAACGGAGTCACCTAGTGCAG”, for which the binding signal is 14200 fluorescence intensity (a.u.).

As to “CAAAATAAATTATCCTAATATGAAATGCGATGATTTCTAACGGAGTCACCTAGTGCAG”, the binding signal was 17300 fluorescence intensity (a.u.).

On to “TTCCCAAATTGATCATCATATAATGAAATCCAAAATTTCTCGGAGTCACCTAGTGCAG”, for which the binding signal was 24500 fluorescence intensity (a.u.).

“AGTAAATTATTCTTAAAAGTTTTCATATTATTCTTTTCATCGGAGTCACCTAGTGCAG”: the binding signal was 9660 fluorescence intensity (a.u.).

As for “ATTAAAACTTAATCAATCACACGTTAATACCACCTCGTTTCGGAGTCACCTAGTGCAG”, the binding signal was 31000 fluorescence intensity (a.u.).

On to “ATGTATTTAGATTAGGATTAGATTGTTTGTAGTGTCTACCCGGAGTCACCTAGTGCAG”, for which the binding signal was 22900 fluorescence intensity (a.u.).

For the sequence “CACCGGATCTGATTACCCCTCTCTCTCTCTCTCTCTCTCTCGGAGTCACCTAGTGCAG”, the binding signal is 3920 fluorescence intensity (a.u.).

In the case of “CGTTCTGTCATTTGGGTTTTATGTTTGTTCTCTCTTGTTTCGGAGTCACCTAGTGCAG”, the binding signal was 5830 fluorescence intensity (a.u.).

Consider “TGCTGATTATACTACTGTGTAAACAATGGCCCTGTTTGATCGGAGTCACCTAGTGCAG”, for which the binding signal is 29500 fluorescence intensity (a.u.).

Take “GGCTATCCAAGATTTCTGCTAATTATTTCACAGAAAATGCCGGAGTCACCTAGTGCAG”: the binding signal was 5300 fluorescence intensity (a.u.).

In the case of “TTCGTTCTTGATTATCCATTTGTTGTTAATAATCTTCTGTCGGAGTCACCTAGTGCAG”, the binding signal was 15500 fluorescence intensity (a.u.).

“CTCTGAGTCAGTGACAAATTGTTGAGCTAAATTGTGTCCTCGGAGTCACCTAGTGCAG”: the binding signal was 4370 fluorescence intensity (a.u.).

As for “TAAAATAAATTATAGATTTTGCCTATAAACTGTGAGATGACGGAGTCACCTAGTGCAG”, the binding signal was 9780 fluorescence intensity (a.u.).

On to “CTCGATTAGCTGTCAACGCTGTTTGGGCCGGCGAGCTCCACGGAGTCACCTAGTGCAG”, for which the binding signal is 13600 fluorescence intensity (a.u.).

For the sequence “CGTCCGGCTCCGTTGGCCAATCAATCCGATCGAGCCAAGCCGGAGTCACCTAGTGCAG”, the binding signal was 3480 fluorescence intensity (a.u.).

On to “ACACAATTATGTCAAGTTCAATTCTCAAGTTTGAATTGGGCGGAGTCACCTAGTGCAG”, for which the binding signal is 5050 fluorescence intensity (a.u.).

As to “GTGCGATGAAACAAATCAATTATCAATTATGTACTCTTTCCGGAGTCACCTAGTGCAG”, the binding signal was 14100 fluorescence intensity (a.u.).

On to “GGTTGATCCAAATGTCATCTTTAATTATTGAACCCGACGTCGGAGTCACCTAGTGCAG”, for which the binding signal was 3160 fluorescence intensity (a.u.).

As for “TTAAACTGTCATACATACATAACTTTTCAGTCACATCGTACGGAGTCACCTAGTGCAG”, the binding signal is 5020 fluorescence intensity (a.u.).

On to “ATGAAGATTGAATAGATATACTATACTACACATGGGTTAACGGAGTCACCTAGTGCAG”, for which the binding signal is 18700 fluorescence intensity (a.u.).

Consider “CTTTTCTCGGACTAAATTGGCACGTGACCAGCTGAGGGAACGGAGTCACCTAGTGCAG”, for which the binding signal was 6480 fluorescence intensity (a.u.).

Turning to “GAACTAAACAGGCCCTTAATTAGCTGTTGCAATCGTCCCTCGGAGTCACCTAGTGCAG”, the binding signal was 31900 fluorescence intensity (a.u.).

As to “CTTTTAAATAATCAGAGTAATTAAAGGTAAGGGCGATCTGCGGAGTCACCTAGTGCAG”, the binding signal was 7540 fluorescence intensity (a.u.).

On to “CCAAGATTGTATCAATATGAATTTCACGCTGTCCGATGCGCGGAGTCACCTAGTGCAG”, for which the binding signal was 7490 fluorescence intensity (a.u.).

In the case of “GGCAGGTAATTGGGAGGGAATTCCTCCTTTACTTTGTCTACGGAGTCACCTAGTGCAG”, the binding signal is 18400 fluorescence intensity (a.u.).

As to “TCCACCCTTCATGTGATTGGTGGTCTGCCGACTGCTTCTGCGGAGTCACCTAGTGCAG”, the binding signal is 11700 fluorescence intensity (a.u.).

“AACCAATCAGCGACACCGTCTAACGGCTCCATTTGATTAGCGGAGTCACCTAGTGCAG”: the binding signal is 14300 fluorescence intensity (a.u.).

In the case of “AATATAAATTAAATTTTATTTGCTAAAATTAATATCATTGCGGAGTCACCTAGTGCAG”, the binding signal is 15000 fluorescence intensity (a.u.).

As for “ATTGATTTTGATAACGCATATTTCTAGATGTCTACGCGTTCGGAGTCACCTAGTGCAG”, the binding signal was 28500 fluorescence intensity (a.u.).

On to “GTGACTAATTCTGAATGGCAATGTTCTCCACGGAGCTGTCCGGAGTCACCTAGTGCAG”, for which the binding signal was 6640 fluorescence intensity (a.u.).

Regarding “TATGTAGCAATTAATCACATTCGTTCGCTATAAATCCGATCGGAGTCACCTAGTGCAG”, the binding signal was 3560 fluorescence intensity (a.u.).

For “TATTTAATTCTACAAATCAACATGCAATCATATCCAGTTACGGAGTCACCTAGTGCAG”, the binding signal was 16900 fluorescence intensity (a.u.).
